Measured values published in PubChem BioAssay AID504937 (National Center for Advancing Translational Sciences (NCATS), 2011).
The campaign covered roughly 340,000 compounds. About 20 (0.006%) were called active. Inconclusive results, whose numbers are uncertain, are shown with a selection of clear calls. Calls follow the shape of the dose curve; as a rule, active = well fitted inhibition curve with a large enough effect; inconclusive = small, poorly fitted or top-dose-only effect; inactive = no such curve, though single readings can be large or run the other way. Where the call is inconclusive, the potency comes from a doubtful curve fit.

biological target: Sphingomyelin phosphodiesterase (Homo sapiens) (UniProt P17405); assay: Inhibitors of Secretory Acid Sphingomyelinase (S-ASM): qHTS; settings: placental ASM, HMU-PC fluorogenic substrate (series up to 57.5 µM), 60 min; activity change, negative = inhibition: at the top concentration
Method in brief: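 HMU-PC0 cleavage (9 uM final) by human placental ASM, 60 min at 37 °C following 10 min compound exposure at RT; stopped at pH 10, fluorescence Ex 386/Em 447 nm.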
Potency is read from the fitted curve at half-maximal effect; tags tell the direction and shape of the fitted curve.

Chain of UniProt P17405 (P17405 whole entry, looked up): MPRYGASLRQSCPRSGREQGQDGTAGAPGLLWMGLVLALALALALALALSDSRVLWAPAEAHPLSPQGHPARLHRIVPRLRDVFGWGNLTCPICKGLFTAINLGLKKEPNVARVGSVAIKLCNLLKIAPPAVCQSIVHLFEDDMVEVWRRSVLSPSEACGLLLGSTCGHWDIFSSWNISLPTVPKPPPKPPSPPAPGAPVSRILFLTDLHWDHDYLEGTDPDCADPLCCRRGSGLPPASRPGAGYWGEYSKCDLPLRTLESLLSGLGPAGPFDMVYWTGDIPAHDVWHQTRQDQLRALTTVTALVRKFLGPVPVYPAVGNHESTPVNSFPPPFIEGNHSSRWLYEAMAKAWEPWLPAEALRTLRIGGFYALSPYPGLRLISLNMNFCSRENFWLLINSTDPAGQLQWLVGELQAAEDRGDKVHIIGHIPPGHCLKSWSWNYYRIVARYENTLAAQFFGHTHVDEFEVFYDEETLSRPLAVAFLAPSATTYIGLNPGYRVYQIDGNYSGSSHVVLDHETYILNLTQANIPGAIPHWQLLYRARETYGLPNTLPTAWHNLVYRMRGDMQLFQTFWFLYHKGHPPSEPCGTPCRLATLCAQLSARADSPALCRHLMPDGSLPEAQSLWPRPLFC

Compound	Potency	activity change, negative = inhibition
COc1ccc(-c2sc3ccc(OC)cc3c2-c2ccc(OCCN3CCOCC3)cc2)cc1	inconclusive: 70.8 µM [inhibitor, partial curve, poor fit]	–
COC(=O)c1cc(NC(=O)c2cc(-c3ccc(OC)cc3)oc2C(F)(F)F)ccc1N1CCOCC1	inconclusive: 100 µM [inhibitor, partial curve, poor fit]	–
COc1ccc(C(=O)Nc2cccc(-c3nnc(-c4ccco4)o3)c2)cc1	inconclusive: 200 µM [inhibitor, partial curve, poor fit]	–
CCn1cc([N+](=O)[O-])c(C(=O)N2N=C(c3cccc4ccccc34)CC2c2ccccc2O)n1 (stereo not drawn)	inconclusive: 251 µM [inhibitor, partial curve, poor fit]	–
O=C(N=Nc1c(O)[nH]c2ccc(Br)cc12)c1ccccc1-n1cccc1	inconclusive: 89.1 µM [inhibitor, partial curve]	–
COc1ccc2c(c1)c(N=NC(N)=S)c(O)n2CC(=O)c1ccccc1	–	inactive: 2.75%
COc1ccc(Nc2oc(COc3ccc(OC)cc3)nc2C#N)cc1	inconclusive: 112 µM [inhibitor, partial curve, poor fit]	–
Cc1cc(NC(=O)c2ccc(Br)cc2)nc(C)n1	–	inactive: -0.853%
CC(C)C[C@@H](CN1CCCC1CN1C(=S)NC[C@@H]1Cc1ccc(O)cc1)N1C[C@H](Cc2ccc(O)cc2)N(CCc2ccccc2)C1=S (stereo partly drawn)	inconclusive: 89.1 µM [inhibitor, single point]	–
CCOC(=O)C1CCN(Cc2ccc(O)c3ncccc23)CC1	–	inactive: 0.476%
Cc1cccc(NC(=O)c2nc[nH]c2C(=O)NCCCCCNC(=O)OC(C)(C)C)c1	–	inactive: -14.5%
COC(=O)[C@@]12CCCCN1[C@H](c1ccc(-c3ccccc3)cc1)[C@H]1C(=O)N(C)C(=O)[C@H]12	inconclusive: 112 µM [inhibitor, partial curve, poor fit]	–
CCCc1cc(=O)[nH]c(SCC(N)=O)n1	–	inactive: 2.25%
Cc1cc(NS(=O)(=O)c2ccc(Nc3nc(-c4sc(N)nc4C)cs3)cc2)no1	inconclusive: 70.8 µM [inhibitor, partial curve, poor fit]	–
O=C(CSc1nc(Nc2ccccc2)nc(N2CCOCC2)n1)Nc1ccccc1Cl	inconclusive: 200 µM [inhibitor, partial curve, poor fit]	–
C/C(=N/N=C/c1ccccc1O)c1ccccc1O	–	inactive: -3.2%
CCC(C(=O)NC1CCCC1)N(C(=O)c1snc(C(N)=O)c1N)c1ccc(OC)cc1 (stereo not drawn)	–	inactive: 41.9%
COCc1nn2c(N)c(C#N)cnc2c1-c1ccccc1	–	inactive: -0.0641%
